# In article PMC12040169 (PLOS Biology, 2025):
# The other results are listed elsewhere or left out.
# Test system: T1, C. trachomatis L2/434/Bu expressing GFP (CTL2-GFP)
# T1 construct: L2/434/Bu GFP intracellular growth in HeLa cells
# Set-up: species or system HeLa; C. trachomatis total inclusion area by high-content imaging, normalised to DMSO
# Settings: total inclusion area; 28.5 h, 10 µM; inhibitor
# Summary of the method: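 High-content imaging followed the bulk GFP/resorufin measurement: fixed, Hoechst-stained cells were scored for GFP inclusions and host nuclei per well. Total inclusion area and count served as growth proxies, nuclei number as the viability proxy. MIC calculation matched the bulk assay.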
row,Structure (SMILES),% of control remaining
1,O=S(=O)(Nc1nnn[nH]1)c1ccc(Br)cc1C(F)(F)F [CBK062388],93.2719
2,Cc1ccc2c(CC(=O)N(C)CCN3CCCCC3)coc2c1 [CBK282747],116.032
3,CCN(CC)C(=O)CN1CCC(Oc2cncc(OCC3COc4ccccc4O3)n2)C1 (centres unmarked) [CBK084374],103.161
4,Oc1ccc2c(c1)C(O)CC1(CCN(CC(O)c3ccc(-c4ccccc4)cc3)CC1)O2 (centres unmarked) [CBK286351],99.7392
5,O=S1(=O)CCN(Cc2cnn(-c3ccc(OC(F)(F)F)cc3)n2)CC1 [CBK112883],63.3652
6,CC(C)c1ccnc(C(C)Sc2nc(N)c(Br)c(Cl)n2)c1 (centres unmarked) [CBK016828],67.1223
7,COc1ccc(C)cc1CC(=O)N(C)CCN1CCCCC1 [CBK282750],112.701
8,CC(C)(C)c1ccc(C(=O)Nc2ccccc2C(=O)Nc2ccc(C(=O)O)cc2)cc1 [CBK268626],108.599
9,COC(=O)c1c(NC(=O)c2cc(C)on2)sc(C(=O)Nc2ccc(Cl)cc2)c1C [CBK268116],105.816
10,Cc1cc(-c2cn3cc(C(=O)N4CCCC4C)nc3c(=O)n2C)c(C)o1 (centres unmarked) [CBK307038],57.9723
11,COCCN(Cc1cnn(C)c1)Cc1cc(O)c2cc(C)ccc2n1 [CBK306723],88.3015
12,CC[C@H]1CN(C(=O)Nc2ccccc2)CC[C@H]1CC(=O)N(C)CC#N [CBK288777],121.67
13,O=S1(=O)c2cc(/N=C/c3c(O)ccc4ccccc34)ccc2-c2ccc(/N=C/c3c(O)ccc4ccccc34)cc21 [CBK261240],104.617
14,Cc1ccc(C)c(S(=O)(=O)NCCCn2ccnc2)c1 [CBK262205],79.7684
15,Cc1cccc(CSc2nnc(C(C)NC(=O)c3ccccc3F)n2C)c1 (centres unmarked) [CBK269732],95.2884
16,COc1cc(Nc2cncc(-c3cccc(F)c3)n2)cc(OC)c1OC [CBK065272],108.247
17,COc1ccc(NS(=O)(=O)c2cccs2)c(OC)c1 [CBK043915],99.7826
18,O=C(c1cscn1)N1CCCC(n2cnc3cc(F)ccc32)C1 (centres unmarked) [CBK284477],114.935
19,Cc1cc(C)c2c(N)c(C(=O)O)sc2n1 [CBK131868],94.2509
20,CCCC(=O)Nc1c(F)cc(F)cc1OC1CCNCC1 [CBK045892T],98.4887
21,CCN1CCN(c2ccc([N+](=O)[O-])cc2S(=O)(=O)N2CCOCC2)CC1 [CBK264410],114.239
22,COCC(C)NC(=O)Cn1c(C(F)F)cc2cccnc21 (centres unmarked) [CBK285010],84.9372
23,O=C(O)c1cc(-c2ccc(F)cc2)n[nH]1 [CBK267848],113.794
24,Cc1nc(-c2cccc(OC(F)F)c2)n(C2CCN(C)CC2)n1 [CBK307382],31.4817
25,O=C(c1cnc2ccccc2c1)N1CCC(F)CC1 [CBK200273],108.243
26,COc1cc2c(cc1OC)C1c3ccccc3NC(c3ccc(C)cc3)N1CC2 (centres unmarked) [CBK286195],99.372
27,c1cc(COc2ccc(N3CCNCC3)nn2)co1 [CBK022562],73.0397

row,Structure (SMILES),% of control remaining
1,Cn1ccc(C(=O)N2CCC[C@H](C(=O)c3cccs3)C2)n1 [CBK282412],81.2631
2,COc1ncc(-c2cncc(N[C@H](C)c3ccccc3)n2)c(OC)n1 [CBK065267],119.404
3,O=C(Cn1cccc(C(=O)Nc2ccc(F)cc2)c1=O)NC1(c2ccccc2)CCCC1 [CBK286057],120.598
4,CCCCCC(=O)Nc1ccc(C(=O)CSc2nnc(-c3ccco3)o2)cc1 [CBK295134],94.5161
5,CC(NC(=O)c1ncoc1-c1ccc2ccccc2c1)c1cccnc1 (centres unmarked) [CBK282441],115.998
6,COc1cc(-c2nccnc2N2CCCN(C)CC2)cc(OC)c1OC [CBK037994],89.2241
7,O=C(CCn1cccn1)NCC1CCCOC1 (centres unmarked) [CBK281474],94.9767
8,Cc1nn(C)c(C)c1CN1CCOC(c2nc(C(C)(C)C)cs2)C1 (centres unmarked) [CBK304170],72.8211
9,Cc1c(C(=O)NC(Cc2cccs2)c2nccs2)cnn1C (centres unmarked) [CBK285053],114.953
10,CCCCNC(=O)c1nnc(C(=O)Nc2cccc(Cl)c2)s1 [CBK294407],88.3932
11,C[C@@H](c1ccccc1)n1c(=O)[nH]c2ncc(-c3cccc(/C=C/C(=O)O)c3)nc21 [CBK065040],58.596
12,CC(=O)Nc1cccc(-c2cc(Nc3ccc(N4CCN(Cc5ccccc5)CC4)cc3)ncn2)c1 [CBK037709],103.467
13,CCCCc1ccc(-c2cnc3ncccc3c2N)cc1 [CBK083683],83.2971
14,O=C(O)CCC(=O)NNC(=O)c1ccc(O)cc1 [CBK261353],92.8288
15,OC(COc1cccc(Oc2ccccc2)c1)CN1CCN(c2ccccc2F)CC1 (centres unmarked) [CBK267468],100.857
16,Cc1ccc(S(=O)(=O)Nc2ccc(C(=O)O)cc2)cc1 [CBK034060],99.276
17,CC1(C)CC2(CC(C)(C(=O)CSc3nnc(-c4ccccc4Br)[nH]3)OC2=O)C(=O)O1 (centres unmarked) [CBK266713],111.674
18,CNC(=S)NCc1nc(-c2ccc(C)cc2)no1 [CBK288418],94.5063
19,CCNc1nc2c(c(=O)[nH]c(=O)n2C)n1CCCc1ccccc1 [CBK269243],96.9833
20,COc1ccc(CCc2nc(C)cc(CN(C)C)c2O)cc1 [CBK278313C],97.4889
21,CC(C)CC1(C(CCN2C(=O)c3ccccc3C2=O)C(=O)NO)CCN(Cc2cccc(F)c2)C1=O (centres unmarked) [CBK013032],87.8
22,O=C(Nc1cccc2ccccc12)C(c1ccccc1)N1CCOCC1 (centres unmarked) [CBK269388],88.6856
23,O=C(O)CCCc1[nH]nc(O)c1Cc1c(Cl)cccc1Cl [CBK081137],65.0459
24,O=C(O)CCNS(=O)(=O)c1ccc(Br)cc1 [CBK261941],71.5359
25,OCc1cccc(-c2nccnc2NCC(O)COc2ccccc2)c1 (centres unmarked) [CBK036842],139.329
26,CN1CCN(c2cc(N3CCN(C)CC3)c([N+](=O)[O-])cc2C2Nc3ccc4ccccc4c3C3=C2C(=O)CC(C)(C)C3)CC1 (centres unmarked) [CBK262381],71.5134
27,COc1ccc(C(C)C)cc1-c1cnc(N)c(NCCCN2CCOCC2)n1 [CBK063625],108.51

row,Structure (SMILES),% of control remaining
1,CC(=O)Nc1cccc2c1NSN2 [CBK027082],77.7464
2,CCN(CC)CCN1C(=O)C(O)=C(C(=O)c2ccc(Cl)cc2)C1c1cccc(Br)c1 (centres unmarked) [CBK265165],87.3505
3,O=C(O)CCC(=O)Nc1ccc(-c2ccc([N+](=O)[O-])cc2)cc1 [CBK261637],73.876
4,Cc1ccccc1Cn1nc(C)c(NC(=O)c2nc3n(n2)C(C(F)F)CC(C)N3)c1C (centres unmarked) [CBK267633],96.1743
5,CC1CN(C(=O)OC(C)(C)C)CCN1c1nc2ccccc2nc1O (centres unmarked) [CBK003877C],71.9929
6,CSc1nccc(OCCOc2nccnc2N2CCNCC2)n1 [CBK000718G],113.085
7,c1ccc(OCCOc2nccnc2-c2cc3ccccc3s2)cc1 [CBK106787],91.5996
8,O=C(NCc1cccc2ccccc12)N1CCN(c2ccccc2)CC1 [CBK155175],94.1515
9,COCc1ccc(C(=O)N2CCC(c3cc4ncccc4[nH]3)CC2)o1 [CBK283373],87.8686
10,COCc1cccc(-c2ncc(OCc3ccccn3)nc2N)c1 [CBK145108],102.36
11,CC(=O)N1CCc2sccc2C1c1ccc(NCc2ccc(F)cc2)cc1 (centres unmarked) [CBK286442],106.194
12,COC(=O)N1CC2(CCCCC2NCc2c[nH]c(C)n2)c2ccccc21 (centres unmarked) [CBK083547T],58.305
13,COCCNC(=O)CN(C)c1nc(-c2ccncc2)nc2ccccc12 [CBK305611],90.3359
14,COc1ccc(C(NC(=O)C2CCN(CCn3cnc4c3c(=O)n(C)c(=O)n4C)CC2)c2ccco2)cc1 (centres unmarked) [CBK148308],128.363
15,CCN1CC2(CCN(CCOc3ccccc3)CC2)c2ccccc21 [CBK122705],94.4956
16,CC(C)COc1ccc(-c2nonc2NC(=O)c2cccs2)cc1 [CBK299822],62.9161
17,O=C(O)c1ccc(NS(=O)(=O)c2ccc3c(c2)C(=O)c2ccccc2C3=O)cc1 [CBK299828],61.3082
18,O=C1NC2(CCCC2)N=C1c1ccc(Cl)cc1Cl [CBK288042],97.031
19,O=C(Nc1ncnc2nc[nH]c12)NC1CCCCC1 [CBK022860],33.3313
20,CCOC(=O)c1cn(CC#N)c2cc(F)c(F)cc2c1=O [CBK304211],85.9456
21,CC(C)Cn1cnc(S(=O)(=O)N2CCN(CC(=O)NC3CC3)CC2)c1 [CBK304223],48.8815
22,Cc1[nH]c2c(C(=O)Nc3cccc(CN4CCOC4=O)c3)cccc2c1C [CBK298338],92.5424
23,CCc1ccc(-c2noc(CSc3n[nH]c(=O)n3CCCOC)n2)cc1 [CBK295656],70.1367
24,CCC(=O)N(C)C(CO)c1cc(OC)ccc1Br (centres unmarked) [CBK304156],77.4307
25,CC(CC(=O)O)CC(=O)N1CCC2(CC1)NC(=O)Cc1ccccc12 (centres unmarked) [CBK047281],92.7864
26,Cn1c(CN2CCCC2)nc2cc(NC(=O)C3CCCCC3)ccc21 [CBK307418],72.7243
